# In all, about 2,000 compounds went through this assay and about 110 (5.5%) showed an effect of 50% or more. The list shows a part of the results.
# Biological target: Genome polyprotein (dengue virus type 2) (UniProt P29990)
# [1] = Thailand/16681/1984, Concentration 25.0 uM, Number of replicates 1.0
smiles,measurement,setting,value
COC(=O)c1cncc(NC(=O)c2cc(OC)nc(N3CCNCC3)n2)c1,inhibition,"Thailand/16681/1984, Concentration 49.5 uM, Number of replicates 2.0, Standard deviation 2.371083495065868 %",-3.19%
same,inhibition,"Thailand/16681/1984, Concentration 99.01 uM, Number of replicates 2.0, Standard deviation 3.1714143372962753 %",-2.14%
same,inhibition,"Thailand/16681/1984, Concentration 198.0 uM, Number of replicates 2.0, Standard deviation 2.985770498250333 %",0.713%
CC(C)n1cnnc1CCNC(=O)C1CCN(c2ccc(C=O)cc2)CC1,inhibition,[1],13.3%
CCC(CC)N1CCN(C(=O)C2CCN(c3ccc(C=O)cc3)CC2)CC1,inhibition,[1],11.3%
CCCOc1cccc(CCNC(=O)C2CCN(c3ccc(C=O)cc3)CC2)c1,inhibition,[1],13.4%
COc1ccc(S(=O)(=O)Nc2ccc(C(=O)O)cc2)cc1,inhibition,"Thailand/16681/1984, Concentration 49.5 uM, Number of replicates 2.0, Standard deviation 0.5608325188005179 %",-0.09%
same,inhibition,"Thailand/16681/1984, Concentration 99.01 uM, Number of replicates 2.0, Standard deviation 0.8121146005802272 %",1.54%
same,inhibition,"Thailand/16681/1984, Concentration 198.0 uM, Number of replicates 2.0, Standard deviation 0.1170568025928226 %",2.41%
COc1cc(CS(=O)(=O)C[C@H]2CCCO2)nc(N2CCNCC2)n1,inhibition,"Thailand/16681/1984, Concentration 49.5 uM, Number of replicates 2.0, Standard deviation 0.1164714250138548 %",-0.916%
same,inhibition,"Thailand/16681/1984, Concentration 99.01 uM, Number of replicates 2.0, Standard deviation 0.21498230770958018 %",-1.32%
same,inhibition,"Thailand/16681/1984, Concentration 198.0 uM, Number of replicates 2.0, Standard deviation 0.7717593724526828 %",-1.59%
COc1ccc(S(=O)(=O)N[C@H]2CC[C@@H](C(=O)Nc3nc4ccccc4s3)CC2)cc1,inhibition,"Thailand/16681/1984, Concentration 49.5 uM, Number of replicates 2.0, Standard deviation 0.7840545353939778 %",-2%
same,inhibition,"Thailand/16681/1984, Concentration 99.01 uM, Number of replicates 2.0, Standard deviation 0.5713843195000082 %",0.764%
same,inhibition,"Thailand/16681/1984, Concentration 198.0 uM, Number of replicates 2.0, Standard deviation 0.49249915896022917 %",0.948%
CCc1ccc(-c2nc3c(C(=O)Nc4ccc5c(c4)CNC5)cc(Cl)cc3[nH]2)cc1,inhibition,"Thailand/16681/1984, Concentration 99.5 uM, Number of replicates 2.0, Standard deviation 0.07636874080258764 %",91.5%
same,inhibition,"Thailand/16681/1984, Concentration 295.6 uM, Number of replicates 2.0, Standard deviation 0.5542721932424032 %",83.9%
O=Cc1ccc(N2CCC(C(=O)N3CCN(c4ccc(C(F)(F)F)cc4)CC3)CC2)cc1,inhibition,[1],3.74%
Cc1cc(CO)c2cccc(C[C@H](NC(=O)c3cc(C(=O)O)[nH]n3)C(=O)O)c2n1,inhibition,"Thailand/16681/1984, Concentration 49.95 uM, Number of replicates 2.0, Standard deviation 0.0783695359950968 %",9.26%
same,inhibition,"Thailand/16681/1984, Concentration 99.9 uM, Number of replicates 2.0, Standard deviation 0.8735551383744987 %",19.8%
CCCC[C@@H](CC)CN(C[C@@H](CC)CCCC)C(=O)C1CCN(c2ccc(C=O)cc2)CC1,inhibition,[1],13.4%
O=C(NCc1cnn2c1CNCC2)c1cccc2ncccc12,inhibition,"Thailand/16681/1984, Concentration 49.5 uM, Number of replicates 2.0, Standard deviation 0.1734798002187207 %",-1.67%
same,inhibition,"Thailand/16681/1984, Concentration 99.01 uM, Number of replicates 2.0, Standard deviation 0.036688958069278785 %",-0.626%
same,inhibition,"Thailand/16681/1984, Concentration 198.0 uM, Number of replicates 2.0, Standard deviation 0.8098743032868769 %",-0.526%
O=C(c1nc2ccccc2[nH]1)N1CCC[C@H](n2cnc3ccccc32)C1,inhibition,"Thailand/16681/1984, Concentration 49.5 uM, Number of replicates 2.0, Standard deviation 2.6115977735474685 %",0.84%
same,inhibition,"Thailand/16681/1984, Concentration 99.01 uM, Number of replicates 2.0, Standard deviation 0.6888029106404484 %",2.01%
same,inhibition,"Thailand/16681/1984, Concentration 198.0 uM, Number of replicates 2.0, Standard deviation 0.432466283759373 %",1.96%
CC(C)Nc1nc2ccc(C(=O)Nc3nnnn3-c3ccccn3)cc2[nH]1,inhibition,"Thailand/16681/1984, Concentration 50.0 uM, Number of replicates 2.0, Standard deviation 0.4638992347914037 %",10.1%
same,inhibition,"Thailand/16681/1984, Concentration 100.0 uM, Number of replicates 2.0, Standard deviation 0.37502198370035894 %",23.2%
same,inhibition,"Thailand/16681/1984, Concentration 200.0 uM, Number of replicates 2.0, Standard deviation 0.6432809425008019 %",46.4%
Cc1cc(CO)c2cccc(Cc3cccc(C(=O)Nc4cc(C)on4)c3)c2n1,inhibition,"Thailand/16681/1984, Concentration 49.95 uM, Number of replicates 2.0, Standard deviation 1.544383261062021 %",29.6%
same,inhibition,"Thailand/16681/1984, Concentration 99.9 uM, Number of replicates 2.0, Standard deviation 16.942938692438737 %",63.9%
Cc1ccc2ccccc2c1NC(=O)C1CCN(c2ccc(C=O)cc2)CC1,inhibition,[1],17.5%
O=Cc1ccc(N2CCC(C(=O)N(CC3CC3)C3CCCCC3)CC2)cc1,inhibition,[1],14.1%
CN(Cc1c(Cl)cccc1Cl)C(=O)C1CCN(c2ccc(C=O)cc2)CC1,inhibition,[1],16%
O=Cc1ccc(N2CCC(C(=O)NCCc3ccc(C(F)(F)F)cc3)CC2)cc1,inhibition,[1],14.7%
Nc1ccc(Cl)c2ncccc12,inhibition,"Thailand/16681/1984, Concentration 49.95 uM, Number of replicates 2.0, Standard deviation 5.573210625462024 %",-2.71%
same,inhibition,"Thailand/16681/1984, Concentration 99.9 uM, Number of replicates 2.0, Standard deviation 5.772283256502015 %",2.67%
Cc1cc(CO)c2cccc(CC(=O)NCc3ccc(C(N)=O)cc3)c2n1,inhibition,"Thailand/16681/1984, Concentration 49.95 uM, Number of replicates 2.0, Standard deviation 0.824600056542549 %",-4.43%
same,inhibition,"Thailand/16681/1984, Concentration 99.9 uM, Number of replicates 2.0, Standard deviation 0.5940444883081935 %",2.19%
Cc1cc(N)cc(CNC(=O)c2cccc(Cc3cccc4c(CO)cc(C)nc34)c2)c1,inhibition,"Thailand/16681/1984, Concentration 49.95 uM, Number of replicates 2.0, Standard deviation 0.2659014326821377 %",29.9%
same,inhibition,"Thailand/16681/1984, Concentration 99.9 uM, Number of replicates 2.0, Standard deviation 1.3431613936290656 %",54.9%
CCC(=O)Nc1ccc(S(=O)(=O)Nc2ccc(Cl)cc2C(=O)NC)cc1,inhibition,"Thailand/16681/1984, Concentration 49.5 uM, Number of replicates 2.0, Standard deviation 0.19261632390400107 %",-3.39%
same,inhibition,"Thailand/16681/1984, Concentration 99.01 uM, Number of replicates 2.0, Standard deviation 0.9168343884111835 %",-1.85%
same,inhibition,"Thailand/16681/1984, Concentration 198.0 uM, Number of replicates 2.0, Standard deviation 0.6069319935951727 %",0.272%
